Experimental data from patent US20230416363A1 (KADMON, published 2023).

Legend:
hPD-1-Fc [1] = target: T1, hPD-1-Fc (human, UniProt Q15116 fragment); test: ELISA competition assay, PD-L1 binding to PD-1
T1 construct: domain: IgV domain; also called human PD-1-Fc; not shown: human IgG1 Fc

hPD-1-Fc [2] = target: T1, hPD-1-Fc; test: ELISA competition assay, PD-L2 binding to PD-1
T1 sequence (Q15116 25-167 limits assumed): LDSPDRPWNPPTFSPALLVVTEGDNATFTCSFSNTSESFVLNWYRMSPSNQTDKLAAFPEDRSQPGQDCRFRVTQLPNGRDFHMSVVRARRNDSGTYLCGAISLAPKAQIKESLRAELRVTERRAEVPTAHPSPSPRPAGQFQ

B1: N65S-1N-38B2/IL-15 (other)
light: DIQMTQSPSSLSASVGDRVTITCRASESISSWLAWYQQKPGKAPKLLIYDASSLESGVPSRFSGSGSGTDFTLTISSLQPEDFATYYCQQGDSFPFTFGQGTKLEIKRTVAAPSVFIFPPSDEQLKSGTASVVCLLNNFYPREAKVQWKVDNALQSGNSQESVTEQDSKDSTYSLSSTLTLSKADYEKHKVYACEVTHQGLSSPVTKSFNRGEC
heavy 1: EVQLLESGGGLVQPGGSLRLSCAASGFTFSSYWMSWVRQAPGKGLEWVSAISGSGGSTYYADSVKGRFTISRDNSKNTLYLQMNSLRAEDTAVYYCASSPLQWVDVWGQGTTVTVSSASTKGPSVFPLAPSSKSTSGGTAALGCLVKDYFPEPVTVSWNSGALTSGVHTFPAVLQSSGLYSLSSVVTVPSSSLGTQTYICNVNHKPSNTKVDKRVEPKSCDKTHTCPPCPAPEAAGGPSVFLFPPKPKDTLMISRTPEVTCVVVDVSHEDPEVKFNWYVDGVEVHNAKTKPREEQYNSTYRVVSVLTVLHQDWLNGKEYKCKVSNKALGAPIEKTISKAKGQPREPQVYVLPPSREEMTKNQVSLLCLVKGFYPSDIAVEWESNGQPENNYLTWPPVLDSDGSFFLYSKLTVDKSRWQQGNVFSCSVMHEALHNHYTQKSLSLSPGK
heavy 2: ITCPPPMSVEHADIWVKSYSLYSRERYICNSGFKRKAGTSSLTECVLNKATNVAHWTTPSLKCIRDPALVHQRPAPPSGGSGGGGSGGGSGGGGSLQ[… about 120 residues with changes …]GGGGSGGGGSGGGGSGGGGSGGGGSGGGGSEVQLLESGGGLVQPGGSLRLSCAASGFTFSSYWMSWVRQAPGKGLEWVSAISGSGGSTYYADSVKGRFTISRDNSKNTLYLQMNSLRAEDTAVYYCASSPLQWVDVWGQGTTVTVSSASTKGPSVFPLAPSSKSTSGGTAALGCLVKDYFPEPVTVSWNSGALTSGVHTFPAVLQSSGLYSLSSVVTVPSSSLGTQTYICNVNHKPSNTKVDKRVEPKSCDKTHTCPPCPAPEAAGGPSVFLFPPKPKDTLMISRTPEVTCVVVDVSHEDPEVKFNWYVDGVEVHNAKTKPREEQYNSTYRVVSVLTVLHQDWLNGKEYKCKVSNKALGAPIEKTISKAKGQPREPQVYVYPPSREEMTKNQVSLTCLVKGFYPSDIAVEWESNGQPENNYKTTPPVLDSDGSFALVSKLTVDKSRWQQGNVFSCSVMHEALHNHYTQKSLSLSPGK
notes: antibody-cytokine fusion; also called 65S_1N_38B2-hSD15; 1N-65S-hSD15-38B2
IC50 (read off the curve) (hPD-1-Fc [1]): ~3 nM | IC50 (read off the curve) (hPD-1-Fc [2]): ~3 nM
